The text below walks through data of the supplement of paper PMC7125110.

The chains are these.
B1: glmS ribozyme (parent)
chain: AUAAAAGCGCCAGAACUACAGAAAUGUAGUUGACGAGGAGGAGGUUUAUCGAAUUUUCGGCGGAUGCCUCCAAA

What all share (conditions): with glucosamine-6-phosphate
In data set [1] the parent is B1. Nature of the data set: self-cleavage kobs at 40 uM GlcN6P; higher = faster cleavage; RNA array. The method, boiled down: (§1)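 Barcoded glmS ribozyme variants on sequenced MiSeq chips were transcribed in situ by E. coli RNA polymerase and tracked through a hybridised Cy3 probe at 37 °C. Glucosamine-6-phosphate (40 μM to 10 mM) in HEPES/KCl/Mg(OAc)2 buffer was flowed in, and tiles were imaged over ~14 h. Signals were normalised to baseline and to non-cleaving reference variants; per-tile medians were fit to one- or two-exponential decays to give kobs. kcat and KM came from weighted Michaelis–Menten fits across concentrations.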

Variants of B1 are the subject of data set [2]. Nature of the data set: self-cleavage kobs at 10000 uM GlcN6P; higher = faster cleavage; RNA array. In short, it runs like this: as §1
Variants of B1 are the subject of data set [3]. As to the kind of experiment: self-cleavage kobs at 640 uM GlcN6P; higher = faster cleavage; RNA array. The method, boiled down:
as §1

The variants in data set [4] derive from B1. Nature of the data set: self-cleavage kobs at 160 uM GlcN6P; higher = faster cleavage; RNA array. The method, boiled down:
as §1

The variants in data set [5] derive from B1. Nature of the data set: self-cleavage kobs at 2500 uM GlcN6P; higher = faster cleavage; RNA array. The method, boiled down:
as §1

± gives the standard error. Variants at the floor of the assay are shown more often than the library holds them. A value given as a limit tells only on which side of the number the result lay.

For A28C C34A G62C, the “self-cleavage kobs at 40 uM GlcN6P” value in the data set with glucosamine-6-phosphate [1] was under 1e-05 s⁻¹. In addition, in the data set with glucosamine-6-phosphate [2], the “self-cleavage kobs at 10000 uM GlcN6P” value is under 1e-05 s⁻¹.

For the variant A14G C16G, in the data set with glucosamine-6-phosphate [1], the “self-cleavage kobs at 40 uM GlcN6P” value is 0.000569 ± 8.6e-05 s⁻¹. Besides, the “self-cleavage kobs at 640 uM GlcN6P” value in the data set with glucosamine-6-phosphate [3] was found to be 0.00514 ± 0.0008 s⁻¹. The “self-cleavage kobs at 160 uM GlcN6P” value with glucosamine-6-phosphate [4] stood at 0.00113 ± 0.00027 s⁻¹. In the data set with glucosamine-6-phosphate [5], the “self-cleavage kobs at 2500 uM GlcN6P” value amounted to 0.00397 ± 0.0011 s⁻¹. In addition, the “self-cleavage kobs at 10000 uM GlcN6P” value in the data set with glucosamine-6-phosphate [2] worked out at 0.00854 ± 0.0016 s⁻¹.

On to C11U G60C, for which the “self-cleavage kobs at 40 uM GlcN6P” value with glucosamine-6-phosphate [1] is under 1e-05 s⁻¹. In the data set with glucosamine-6-phosphate [4], the “self-cleavage kobs at 160 uM GlcN6P” value is under 1e-05 s⁻¹.

Turning to C11U G29A U30G G32C G59C, the “self-cleavage kobs at 40 uM GlcN6P” value with glucosamine-6-phosphate [1] is under 1e-05 s⁻¹.

Take A12G U49C: the “self-cleavage kobs at 40 uM GlcN6P” value with glucosamine-6-phosphate [1] was under 1e-05 s⁻¹. Also, the “self-cleavage kobs at 640 uM GlcN6P” value in the data set with glucosamine-6-phosphate [3] was under 1e-05 s⁻¹. In addition, the “self-cleavage kobs at 10000 uM GlcN6P” value in the data set with glucosamine-6-phosphate [2] was under 1e-05 s⁻¹.

Turning to A12G U49A, the “self-cleavage kobs at 40 uM GlcN6P” value with glucosamine-6-phosphate [1] is under 1e-05 s⁻¹. For the same variant, in the data set with glucosamine-6-phosphate [3], the “self-cleavage kobs at 640 uM GlcN6P” value was under 1e-05 s⁻¹. For the same variant, in the data set with glucosamine-6-phosphate [5], the “self-cleavage kobs at 2500 uM GlcN6P” value was under 1e-05 s⁻¹. Further, in the data set with glucosamine-6-phosphate [2], the “self-cleavage kobs at 10000 uM GlcN6P” value was under 1e-05 s⁻¹.

Consider G29A C34A G38C G41A, for which the “self-cleavage kobs at 40 uM GlcN6P” value with glucosamine-6-phosphate [1] is under 1e-05 s⁻¹. For the same variant, the “self-cleavage kobs at 640 uM GlcN6P” value in the data set with glucosamine-6-phosphate [3] is under 1e-05 s⁻¹.

For A12C A14C G41U G60U G66U, in the data set with glucosamine-6-phosphate [1], the “self-cleavage kobs at 40 uM GlcN6P” value was under 1e-05 s⁻¹. For the same variant, in the data set with glucosamine-6-phosphate [4], the “self-cleavage kobs at 160 uM GlcN6P” value is under 1e-05 s⁻¹. Besides, in the data set with glucosamine-6-phosphate [5], the “self-cleavage kobs at 2500 uM GlcN6P” value is under 1e-05 s⁻¹.

As to A12G G62U, the “self-cleavage kobs at 40 uM GlcN6P” value with glucosamine-6-phosphate [1] was under 1e-05 s⁻¹. For the same variant, the “self-cleavage kobs at 640 uM GlcN6P” value with glucosamine-6-phosphate [3] is under 1e-05 s⁻¹.

With A15C G32U A33C, the “self-cleavage kobs at 40 uM GlcN6P” value in the data set with glucosamine-6-phosphate [1] is under 1e-05 s⁻¹. For the same variant, the “self-cleavage kobs at 640 uM GlcN6P” value with glucosamine-6-phosphate [3] is under 1e-05 s⁻¹. Further, the “self-cleavage kobs at 160 uM GlcN6P” value in the data set with glucosamine-6-phosphate [4] is under 1e-05 s⁻¹. Besides, the “self-cleavage kobs at 2500 uM GlcN6P” value in the data set with glucosamine-6-phosphate [5] is under 1e-05 s⁻¹. Besides, in the data set with glucosamine-6-phosphate [2], the “self-cleavage kobs at 10000 uM GlcN6P” value is under 1e-05 s⁻¹.

A12C C34A: the “self-cleavage kobs at 40 uM GlcN6P” value with glucosamine-6-phosphate [1] is under 1e-05 s⁻¹. Besides, in the data set with glucosamine-6-phosphate [3], the “self-cleavage kobs at 640 uM GlcN6P” value was under 1e-05 s⁻¹. Further, in the data set with glucosamine-6-phosphate [4], the “self-cleavage kobs at 160 uM GlcN6P” value is under 1e-05 s⁻¹.

With C11U U56A, the “self-cleavage kobs at 40 uM GlcN6P” value with glucosamine-6-phosphate [1] stood at 3.72e-05 ± 1e-05 s⁻¹. Besides, the “self-cleavage kobs at 640 uM GlcN6P” value in the data set with glucosamine-6-phosphate [3] worked out at 0.000294 ± 4.5e-05 s⁻¹. Further, in the data set with glucosamine-6-phosphate [4], the “self-cleavage kobs at 160 uM GlcN6P” value is 0.000103 ± 1.4e-05 s⁻¹. In addition, the “self-cleavage kobs at 2500 uM GlcN6P” value with glucosamine-6-phosphate [5] came to 0.000621 ± 7.2e-05 s⁻¹. Moreover, the “self-cleavage kobs at 10000 uM GlcN6P” value with glucosamine-6-phosphate [2] was 0.00125 ± 0.00016 s⁻¹.

In the case of G13U G60A, in the data set with glucosamine-6-phosphate [1], the “self-cleavage kobs at 40 uM GlcN6P” value was under 1e-05 s⁻¹. Also, the “self-cleavage kobs at 160 uM GlcN6P” value with glucosamine-6-phosphate [4] is under 1e-05 s⁻¹. In addition, the “self-cleavage kobs at 10000 uM GlcN6P” value with glucosamine-6-phosphate [2] was under 1e-05 s⁻¹.

Consider A12C G44U G63U, for which the “self-cleavage kobs at 40 uM GlcN6P” value with glucosamine-6-phosphate [1] was under 1e-05 s⁻¹. Besides, the “self-cleavage kobs at 10000 uM GlcN6P” value with glucosamine-6-phosphate [2] is under 1e-05 s⁻¹.

On to G13A A53U, for which the “self-cleavage kobs at 40 uM GlcN6P” value in the data set with glucosamine-6-phosphate [1] was under 1e-05 s⁻¹. The “self-cleavage kobs at 640 uM GlcN6P” value with glucosamine-6-phosphate [3] came to 7.57e-05 ± 2.4e-05 s⁻¹. Further, in the data set with glucosamine-6-phosphate [5], the “self-cleavage kobs at 2500 uM GlcN6P” value turned out to be 0.000174 ± 4.1e-05 s⁻¹.

Take A12U A33G: the “self-cleavage kobs at 40 uM GlcN6P” value in the data set with glucosamine-6-phosphate [1] was under 1e-05 s⁻¹. In addition, in the data set with glucosamine-6-phosphate [4], the “self-cleavage kobs at 160 uM GlcN6P” value is under 1e-05 s⁻¹. For the same variant, in the data set with glucosamine-6-phosphate [2], the “self-cleavage kobs at 10000 uM GlcN6P” value was under 1e-05 s⁻¹.

Regarding A12G G41C A53C, the “self-cleavage kobs at 40 uM GlcN6P” value in the data set with glucosamine-6-phosphate [1] is under 1e-05 s⁻¹.

For the variant A12U C16A C34A G38U G51U, in the data set with glucosamine-6-phosphate [1], the “self-cleavage kobs at 40 uM GlcN6P” value is under 1e-05 s⁻¹. Besides, the “self-cleavage kobs at 2500 uM GlcN6P” value in the data set with glucosamine-6-phosphate [5] is under 1e-05 s⁻¹. Moreover, in the data set with glucosamine-6-phosphate [2], the “self-cleavage kobs at 10000 uM GlcN6P” value is under 1e-05 s⁻¹.

Take C11U G38U: the “self-cleavage kobs at 40 uM GlcN6P” value in the data set with glucosamine-6-phosphate [1] was under 1e-05 s⁻¹. The “self-cleavage kobs at 640 uM GlcN6P” value with glucosamine-6-phosphate [3] is under 1e-05 s⁻¹. Further, the “self-cleavage kobs at 160 uM GlcN6P” value with glucosamine-6-phosphate [4] was under 1e-05 s⁻¹. For the same variant, the “self-cleavage kobs at 2500 uM GlcN6P” value with glucosamine-6-phosphate [5] is under 1e-05 s⁻¹.

Turning to G13A A14U U45C, the “self-cleavage kobs at 40 uM GlcN6P” value in the data set with glucosamine-6-phosphate [1] was under 1e-05 s⁻¹.

In the case of A14C G44U C68G, the “self-cleavage kobs at 40 uM GlcN6P” value with glucosamine-6-phosphate [1] is under 1e-05 s⁻¹. Also, the “self-cleavage kobs at 10000 uM GlcN6P” value with glucosamine-6-phosphate [2] is under 1e-05 s⁻¹.

Take A12C A15U U49A: the “self-cleavage kobs at 40 uM GlcN6P” value in the data set with glucosamine-6-phosphate [1] is under 1e-05 s⁻¹.

Turning to G29A G37C U69C, the “self-cleavage kobs at 40 uM GlcN6P” value in the data set with glucosamine-6-phosphate [1] is under 1e-05 s⁻¹.
